Measurements as given in the RNAGym collection of RNA variant scans (doi:10.7554/elife.90254).
The source gives no read counts; variants with many changes may rest on few reads.

B1: OR4K15 (parent)
chain: GUUAACGGUCAUAGGCCAUGGAAACUAGGAGCACCAUUUCGCUGCCAGUGAAGAAAUGAACAAAGAAAAUCUGGGCCAGGCAGGCAUCAAAAGAAAUAGUCUUGCGCUCAACCAGAAAGUCUGUAAUCAUUUUAAGGGUA

Variants of: B1
Assay: self-cleavage, relative activity (ratio to wild type); higher = more cleavage; in vitro, sequencing; the parent is a self-cleaving ribozyme

| Variant | self-cleavage |
| --- | --- |
| GUUAACGGUCAUAGGCCAUGGAAACUAGGAGCACCACUUCGCCGCCAGUGAAGAAAUGAACAGAGAAAAUCUGGGCCAGGCAGGCAUCAAAAGAAAUAGUCUUGCGCUCAACCAGAAAGUCUGUAAUCAUUUUAAGGGUA [U37C U43C A63G] | 1.63 |
| GUUAACGGUCAUAGGCCAUGGAAACUAGGAGCACCAUUUCGCUGCCAGUGAAGAAAUGAACAAAGAGAAUCUGGGCCAGGCGGGCAUCAAAAGAAAUAGUCUUGCGCUCAACCAGAAUGUCUGUAAUCAUUUUAAGGGUA [A67G A82G A118U] | 0.08 |
| GCUAACGGUCAUAGGCCAUGGAAACUAGGAGCACCAUUUCGCCGCCAGUGAAGAAAUGAUCAAAGAAAAUCUGGGCCAGGCAGGCAUCAAAAGAAAUAGUCUUGCGCUCAACCAGAAAGUCUGUAUUCACCUUAAGGGUA [U2C U43C A60U A126U U130C U131C] | 0.63 |
| GUUAACGGUCAUAGGCCAUGGGAACUAGGAGCACCAUUUCGCUGCCAGUGGAGAAAUGAACAAAGAAAAUCUGGGCCAGGCAGGCAUCAAAGGAAAUAGUCUUGCGCUCAACCAGUAAGUCUGUAAUCAUUUUAAGGGUA [A22G A51G A92G A116U] | 0.2 |
| GUUAACGGUCAUAGGCCAUGGAAACUAGGAGCACCAUUUCGCUGCCAGUGAAGAAAUGAACAAAGAAAAUCUGGGCCAGGCAGGCAUCAAAAGAAAUAGUCUUGCGCUCAACCAGAUAGUUCGUAAUCAUUUUAAGGGUA [A117U C121U U122C] | 1.02 |
| GUUGACGGCCAUAGGCCAUGGAAACUAGGAGCACCAUUUCGCUGCCAGUGAAGAAAUGAACAAAGAAAAUCUGGGCCAGGCUGGCAUCAAAAGAAAUAGUCUUGCGCUCAACCAGAAAGUCUGUAAUCAUUUUAAGGGUA [A4G U9C A82U] | 0.19 |
| GUUAACGGUCAUAGGCCAUGGAAACUAGGAGCACCAUUUCGCUGCCAGUGGAGAAAUGAACGAAGAUAAUCUGGGCCAGGCAGGCAUCAAAAGAAAUCGCCUCGCGCUCAACCAGAAAGUCUGUAAUCAUUUUAAGGGUA [A51G A62G A67U A98C U100C U103C] | 2.61 |
| GUCAACGGUCAUAGGCCAUGGAAACUAGGAGCACCAUUACGCUGCCAGUGGAGAAAUGAACAAAGAAAAUCUGGGCCAGGCAGGCGUCAAAAGAAAUAGUCUUGCGCUCAACCAGAAAGUCUGUAAUCAUUUUAAGGGCA [U3C U39A A51G A86G U139C] | 0.3 |
| GUUAACGGUCAUAGGCCAUGGAAGCUAGGAGCACCAUUUCGCUGCCAGUGAAGAAAUGAACAAAGAAAAUCUGGGCCAGGCAGGCAUCAAAAGAAGUAGUCUUGUGCUCAACCAGAAAGUCUGUAAUCAUUUUAAGGGUA [A24G A96G C105U] | 0.33 |
| GCUAACGGUCAUAGGCCAUGGAAACUAGGAGCACCAUUUCGCUGCCAGUGAAGAAAUGAACAAAGAAAAUCUGGGCCGGGCAGGCAUCAAAAGAAAUAGUCUUGCGCUCAACCAGAAAGUCUGUGAUCAUUUUAAGGGUA [U2C A78G A125G] | 0.16 |
| GUUAACGGUCAUAGGCCAUGGAAACUAGGAGCACCAUUUCGCCGCCAGUGAAGAAAUGAACAAAGAAAAUCUGGGCCGGGCAGGCAUCAAAGGAAAUAGUCUUGCGCUCAACCAGAAAGUCUGUAAUCAUUUUAAGGGUA [U43C A78G A92G] | 0.29 |
| GUUAGCGGUCAUAGGCCAUGGAAACUAGGAGCACCAUUUCGCUGCCAGUGAAGAAAUGAUCAAAGAAAAUCUGGGCCAGGCAGGCAUCAAAAGAAAUAGUCUUGCGCUCAACCGGAAAGUCUGUGAUCAUUUUAAGGGUA [A5G A60U A114G A125G] | 0.56 |
| GUUAACGGUCAUAGGCCAUGGAAACUAGGAGCACCAUUUCGCUGCCAGUGAAGAAAUGAACAAAGAAAAUCUGGGCCAGGCAGGCAUCAAAAGAGAUAGUCUUGCGCUCAACCAGGAGGUCUGUAAUCAUUUUAAGGGUA [A95G A116G A118G] | 0.52 |
| GUUAACGGUCAUAGGCCAUGGAAACUAGGAGCACCAUCUUGCUGCCAGUGAAGAAAUGAACAAAGAAAAUCUGGGCCAGGCAGGCAUCAAAGGAAACAGUCUUGCGCUCAACCAGAAAGUCUGUAACCAUUUUAAGGGUA [U38C C40U A92G U97C U127C] | 0.34 |
| GUUAACGGUCAAAGGCCAUGGAAACUAGGAGCACCAUUUCGCUGCCAGUGAAGAAAUGAACAAGGAAAAUCUGGGCCAGGCAGGCAUCAAAAGAAAUAGUCUUGCGCUCAACCAGAAGGUCUGUAAUCAUUUUAAGGGUA [U12A A64G A118G] | 1.18 |
| GUUAACGGUCAUAGGCCAUGGAAACUAGGAGCACCAUUCCGCUGCCAGUGAGGAGAUGAACAAAGAAAAUCUGGGCCAGGCAGGCAUCAAAAGAAAUAGUCUAGCGCCCAACCAGAAAGUCUGUAAUCAUUCUAAGGGUA [U39C A52G A55G U103A U108C U132C] | 0.01 |
| GUUAACGGUCAUAGGCCAUGGAAACUAGGAGCACCAUUUCGCUGCCAGUGAAGAGAUGAACAAAGAAAAUCUGUGCCAGGCAGGCAUCAAAAGAAAUAGUCUUGCGCUCAACCAGAAAGUCCGUAAUCAUUUUAAGGGUA [A55G G74U U122C] | 0.09 |
| GUUAACGGUCAUAGGCCAUGGAAACUAGGAGCACCAUUUCGCUGCCAGUGAAGAAAUGAACAAAGAAAAUCUGGGCCAGGCAGGCAUCAAGGGAAAUAGUCUUGCGCUCAACCAGAAAGUCCGUAAUCAUUUUAAGGGUA [A91G A92G U122C] | 1.08 |
| GUUAACGGUCAUAGGCCGUGGAAACUAGGAGCACCAUUUCGCUGCCAGUGAAGAAAUGAACAAAGAAAAUCUGGGCCAGGCAGGCAUCAGAAGAAAUAGCCUUGCGCUCAACCAGAAAGUCUGUAAUCAUUUUAAGGGUA [A18G A90G U100C] | 2.03 |
| GUUAACGGUCAUAGGCCAUGGAAACUAGGAGCACGAUUUCGCUGCCAGUGAAGAAAUGAACAGAGAAAAUCUGGGCCAGGCAGGCAUCGAAAGAAAUAGUCUUGCGCUCAACCAGAAAGUCUGUAAUCAUUUUAAGGGUA [C35G A63G A89G] | 0.87 |
| GUUAAAGGUCAUAGGCCAUGGAAACUAGGAGCACCAUUUCGCUGCCAGUGAAGAAAUGAACAAAGAAAAUCUGGGCCAGGCAGGCAUCAAAAGAAAUAGUCUUGCGCUCAACCAGAAAGUCUGUAGUCAUUUUAUGGGUA [C6A A126G A135U] | 1.09 |
